# Laboratory results reported in the supplement of paper PMC11417369.
# ± gives the standard deviation of the averaged measurements. Some of the results follow.
# Test system: PfAP2-I AP2 domain 3 (GST-tagged)
# Experiment: gcPBM binding intensity (ln(normalized median fluorescence intensity)); higher = stronger DNA binding
# Outline: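 An Agilent 4 × 180k array of primer-extended double-stranded 36-bp intergenic genomic probes, with negative controls, was incubated for 1 h with GST-tagged P. falciparum DNA-binding domains expressed in E. coli. Alexa488 anti-GST antibody detected bound protein, scanned at 488 nm. Binding intensity is the highest Masliner-normalised natural-log median intensity across replicate spots of either probe orientation.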
row,Sequence,gcPBM binding intensity (ln)
1,TAAAACAAAATAACATGTACAAAAAAAAAAAAAAAA [XGTACX_site2915],8.02 ± 0.62
2,ATGTAATATGTTCATGCATGTAAAATTACATTTAGA [TGCATGCA_site852],7.74 ± 0.62
3,CATATAAGAATCTTCTGTACTTATAAGAAAAGACAT [XGTACX_site8135],7.89 ± 0.48
4,GGACGTATTAAAAGGCGTACACTAAATATTTTATGT [XGTACX_site146],8.06 ± 0.34
5,TAATATTTATATAATTGTACTTTGTTTGTAAATCCA [XGTACX_site7292],7.58 ± 0.43
6,AAGATAATTACGCACACACACACACGCCCACAACTA [CACACA_site7255],9.515 ± 0.064
7,ATTATAATTTTGTAAAGTACATATTATTATATATTA [XGTACX_site7191],7.42 ± 0.3
8,AAGGTAAAATATAAGTGTACTTTTTCTTAATCTTCG [XGTACX_site514],7.69 ± 0.24
9,ATATATAATATAATATGTACATATAATCAATCCTGT [XGTACX_site8694],7.94 ± 0.3
10,ATTTAGTATTCGAAACGTACACATATATATATATAT [XGTACX_site3910],9.3 ± 0.32
11,ATATTTTTTTTCTTCACACACATGAGTTATAAATAA [CACACA_site7498],8.23 ± 0.69
12,AATGAAACAATACCCAGTAAAAAAAAAAAATAAATA [TGCATGCA_negctrl_site205],7.47 ± 0.71
13,TGTAATCTGGAGAAGAGTACACAGTATCTGGTAGCT [XGTACX_site4935],7.62 ± 0.64
14,GCAAAATAAAGAAGCACACAAAAATGAAATATATAT [CACACA_site3651],7.95 ± 0.8
15,CATATTTATAAATATAAACACACAACATTATATGCA [CACACA_site9065],7.71 ± 0.42
16,TTTAATTAATAATAATATAAATTGTTCTTTTTTTTT [GTGCAC_negctrl_site176],6.96 ± 0.46
17,ACTAGTAAATTTATATGTACATATATATATATATAG [XGTACX_site2502],8.02 ± 0.54
18,AAAAAAAATACATACATACACACATATATATATATA [CACACA_site912],9.33 ± 0.31
19,TCTTGGTATATTCAATATATGATTTATATAATTCAA [CACACA_negctrl_site818],7.67 ± 0.49
20,ATTTATATATATCATACACACTAATATGTATATTAT [CACACA_site5816],7.8 ± 0.37
21,TATACGTAATAATATGCACACAAATAAACTTTATAA [CACACA_site9166],8.87 ± 0.085
22,TTATTTTTTTCAACAAGTACTAATACAAAATAAAAC [XGTACX_site6460],8.06 ± 0.44

row,Sequence,gcPBM binding intensity (ln)
1,GATTAAATCGATAATACACACTAAATGTAAAACATT [CACACA_site4248],7.87 ± 0.36
2,TTGTATTATTAAATTATAAAACCTATAATTATGGAT [GTGCAC_negctrl_site340],7.55 ± 0.27
3,TGATAACTAAATACATGTACAAATTAAAAAGAAAAA [XGTACX_site3080],7.66 ± 0.72
4,TAATGATTATATGACTGTACATTTGTAGGTATAATT [XGTACX_site3373],7.9 ± 0.42
5,GTACATATAAATATTACACACATTTTCATTTTTAAC [CACACA_site1986],8.12 ± 0.25
6,AAATCGAACAAATTATGTACTAAAAAAAAAATTTAT [XGTACX_site6399],7.68 ± 0.54
7,TTATATGCATCCAAAAAGGAATGTTTTTAGAGAATC [CACACA_negctrl_site1062],7.63 ± 0.67
8,ATCTTTCGAACATGTACACACAGAAAAAAAAAAAAA [CACACA_site5393],8.29 ± 0.48
9,TGTATAGGTACAATAATTATAGAGTAATTGACATTA [GTGCAC_negctrl_site183],7.8 ± 0.49
10,TAAAAAGTATATGGTCGTACACTTTTGATTAATACA [XGTACX_site7804],7.58 ± 0.45
11,GTGTAGGCAAAAAGTTGTACGCCTAAAATCTATATA [XGTACX_site8912],8.18 ± 0.19
12,ACTCTCTTATATTAAACACACATATATATATGTATA [CACACA_site2703],8.26 ± 0.56
13,TCAAACAAAAAAGAAACACACACTAATTAAATTTTC [CACACA_site1101],7.54 ± 0.88
14,AATAATTTGAAGGTGATAGTATTACATGGGAAATCA [CACACA_negctrl_site301],7.87 ± 0.64
15,AACACCAAACAAAGGTGTACATATAGGAAAAAATCT [XGTACX_site1006],7.81 ± 0.69
16,TATCACATATTATGATGTACAAAGATTCTGACTAAT [XGTACX_site2770],7.46 ± 0.49
17,TACACGCAGAAACACACACACACACCCATATATATA [CACACA_site637],8.46 ± 0.65
18,TTTCCTTATAAAAATACACACAAACTTTCATTAAAA [CACACA_site5953],7.55 ± 0.47
19,TCATATTATTATATATGTACATACCAATATATTATA [XGTACX_site2988],7.82 ± 0.45
20,TAGATATGTCTAAAAAGTACTTTCTATAACAATTCT [XGTACX_site6678],7.42 ± 0.51
21,AGAGGGGAAAACATGATGCACTAGTATAACCAAGAA,10.1 ± 0.16
22,AGAGAAGAAAACAAAACACACACATATATCTTAATA [CACACA_site8699],7.76 ± 0.79

row,Sequence,gcPBM binding intensity (ln)
1,AACTTAAAAAAAAAAAAAAAAAAAAAAAAAAAAAAA [GTGCAC_negctrl_site34],8.44 ± 1.1
2,CCCAATAATTAAACAACACACATATATATCTGTAAT [CACACA_site5667],7.88 ± 0.57
3,ATAAAATGGGCAAACACACACAAAAAAAAGATATAT [CACACA_site1648],8 ± 0.58
4,AGGGGCGAAACAAAGGTGCTTTTATAAAATATGTAA,9.79
5,AGAAATCATCTGAATTGTACTAACAATTTTTTTTAA [XGTACX_site6191],7.49 ± 0.44
6,TATTATAATAAAATATGTACACACATACACACATAT [XGTACX_site2360],7.98 ± 0.41
7,CTTAAATCTACTATTTGTACATATTTTATTATTAAA [XGTACX_site6151],7.86 ± 0.32
8,TAGATAAAATTAAAATGTACAAACCTTTTCCCTTAT [XGTACX_site1136],7.62 ± 0.31
9,TATATATATATAAAGGTGCATATCTTTACGTATGTC [GTGCAC_site9665],10.4 ± 0.23
10,ATATATATATATGATACATGCATATATTTTTTCTTC [TGCATGCA_site216],9.1 ± 0.13
11,TTTTTTTTATCAAATTGTACATATACAAAGGTGATC [XGTACX_site8054],7.73 ± 0.33
12,ATTTTATTTTTTAATAGTACTCATTTTTTATGTGAA [XGTACX_site5494],7.75 ± 0.43
13,ATATATATATATATATGTACTTATTTATTTTATATA [XGTACX_site8810],9.35 ± 0.49
14,AGCATATATTAAACATGTACATAAATATATTATATA [XGTACX_site1451],7.99 ± 0.2
15,GAATGAATGATAAATTTTTTTTTCTTTTTTTTTTTG [CACACA_negctrl_site333],7.09 ± 0.59
16,TGTTATATATATACAAACATACACATTTATAAACAA [TGCATGCA_negctrl_site235],7.75 ± 0.56
17,TATTAATTTCTTTTTTCTCATCACTTTCAAAATGAA [CACACA_negctrl_site1055],7.9 ± 0.47
18,TTATGATCATTTATATGTACACATAATTTTTGTGCT [XGTACX_site5568],7.75 ± 0.49
19,GTTCAAATTCTTATACCTTTTTATTGAGCCATAATA [CACACA_negctrl_site210],7.92 ± 0.68
20,AAAAAAAGAAAAAAAACACACACAAATATAAATAAA [CACACA_site8309],7.48 ± 0.59
21,CCAAATTTATAAAGAACACACACATATATATATATA [CACACA_site7900],9.29 ± 0.18
22,TATACATATTTAATATGTACATAATAATACTTATTC [XGTACX_site6939],7.46 ± 0.4

row,Sequence,gcPBM binding intensity (ln)
1,AAGCATGTAGAATAATGTACTTGTGATTTTAATATA [XGTACX_site8565],7.45 ± 0.27
2,AAAAAAAAAATACAGGTGCAATAAGAAAAAAATGGT,11.4 ± 0.57
3,TATATTAACAAAATGGTGCAATAATTTCTATATTAT [GTGCAC_site9857],11.3 ± 0.61
4,AAAAATAAAAAAATAATAAAATAAAAAATAAAAAAT [TGCATGCA_negctrl_site89],7.57 ± 0.68
5,TAAAAAAACATATATTGTACGGAGATAATAATTTTT [XGTACX_site2946],7.67 ± 0.72
6,ATGTATAAACATATATGTACTTAAATAAAATGTTAA [XGTACX_site4044],7.92 ± 0.27
7,CACCAATTCATATGCACACACATCTGCATATTATAT [CACACA_site1773],9.06 ± 0.28
8,ATTAAAAGAACAATGTAAAAAAAGCAAATTAAAGAT [TGCATGCA_negctrl_site360],8.13 ± 0.73
9,TATACTGTCAATTCTACACACCATAGGGGGAGCATA [CACACA_site1875],9.22
10,TTATTAAATGAAAAATGTACATATAAATGATTATAT [XGTACX_site2788],7.76 ± 0.66
11,GAAATGTGTAGACACGCACACACAAAAAAATATATA [CACACA_site2912],7.77 ± 0.51
12,ATAAAAATATAAACATGTACATAAAAATCTATATAT [XGTACX_site405],8.01 ± 0.54
13,TTGCTTATATTTCTAAAATGTAAAAGACACAAAGGT [XGTACX_negctrl_site225],8.29 ± 0.34
14,TTCTAATATATGCATACACACAAATGTGAATATACA [CACACA_site2142],8.23 ± 0.51
15,TTTTTTATTACTTTGTGTACTTACACAGAACCTTAT [XGTACX_site6038],8.24 ± 0.35
16,AAAAATGCAATTTAATGTACACATAAGATGTTATTT [XGTACX_site6853],7.66 ± 0.6
17,AAAAAAAAAAAAAACACACACACACCCAAATATATA [CACACA_site1169],8.35 ± 0.39
18,ATATATTTATTTATATGTACATAATATTTTTCTCAG [XGTACX_site800],7.9 ± 0.34
19,AATTCTTTTTTCAACACACACACACCCGAAAATATA [CACACA_site3111],8.48 ± 0.16
20,ATATAGGTAATATTTTGTACATATTTTTGGGGTAGT [XGTACX_site5634],8.24 ± 0.69
21,AGATACTTTTTTAAAAGTACAAAAACTTTCGATATA [XGTACX_site959],7.59 ± 0.32
22,ATATTTTTTGTATGTTGTACATAAAATATACATTTT [XGTACX_site6815],7.71 ± 0.42
